Consider three proteins from the supplement of paper PMC11876631.

In the data set the target is Escherichia coli (laboratory strain). In words: barcode share on antibiotic plates over drug-free plates; higher = less susceptible. Here is the method: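 A pool of E. coli strains, each edited to carry one amino-acid change in an essential protein, was grown for 48 h on minimal glucose agar with or without antibiotic; strain barcodes were sequenced; mean of two replicates.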

[1] abbreviates: antibiotic: carbenicillin, 2× MIC (3.1 µg/mL).
[2] abbreviates: antibiotic: gentamicin, 2× MIC (MIC 0.45 µg/mL).

± gives the standard deviation of the averaged measurements. Laboratory Escherichia coli strains with one amino-acid change in an essential protein, pooled on minimal glucose agar with carbenicillin or gentamicin at twice the control MIC (plus kanamycin and chloramphenicol for the plasmids), 48 h. Fold change of barcode share against drug-free plates; higher = less susceptible. Active = above 20 in both replicates (the paper's putatively resistant). '<' = one read or none on drug, '>' = one read or none on a drug-free plate. Shares are relative, so most strains fall below 1 when a few take over. Listed are strains with at least 15 reads on both drug-free plates, and hits; most hits rest on fewer reference reads. Replicate rank correlation about 0.5. Edits are read from barcodes.

B1: ppc L778W (protein)
chain: MNEQYSALRSNVSMLGKVLGETIKDALGEHILERVETIRKLSKSSRAGNDANRQELLTTLQNLSNDELLPVARAFSQFLNLANTAEQYHSISPKGEAASNPEVIARTLRKLKNQPELSEDTIKKAVESLSLELVLTAHPTEITRRTLIHKMVEVNACLKQLDNKDIADYEHNQLMRRLRQLIAQSWHTDEIRKLRPSPVDEAKWGFAVVENSLWQGVPNYLRELNEQLEENLGYKLPVEFVPVRFTSWMGGDRDGNPNVTADITRHVLLLSRWKATDLFLKDIQVLVSELSMVEATPELLALVGEEGAAEPYRYLMKNLRSRLMATQAWLEARLKGEELPKPEGLLTQNEELWEPLYACYQSLQACGMGIIANGDLLDTLRRVKCFGVPLVRIDIRQESTRHTEALGELTRYLGIGDYESWSEADKQAFLIRELNSKRPLLPRNWQPSAETREVLDTCQVIAEAPQGSIAAYVISMAKTPSDVLAVHLLLKEAGIGFAMPVAPLFETLDDLNNANDVMTQLLNIDWYRGLIQGKQMVMIGYSDSAKDAGVMAASWAQYQAQDALIKTCEKAGIELTLFHGRGGSIGRGGAPAHAALLSQPPGSLKGGLRVTEQGEMIRFKYGLPEITVSSLSLYTGAILEANLLPPPEPKESWRRIMDELSVISCDVYRGYVRENKDFVPYFRSATPEQELGKLPLGSRPAKRRPTGGVESLRAIPWIFAWTQNRLMLPAWLGAGTALQKVVEDGKQSELEAMCRDWPFFSTRLGMLEMVFAKADLWWAEYYDQRLVDKALWPLGKELRNLQEEDIKVVLAIANDSHLMADLPWIAESIQLRNIYTDPLNVLQAELLHRSRQAEKEGQEPDPRVEQALMVTIAGIAAGMRNTG
As to B1, the “fold change of barcode share” value stood at 0.894 ± 0.074 under setting [1] and 0.0173 ± 0.016 under setting [2].

B2: ppc L778Q (protein)
chain: MNEQYSALRSNVSMLGKVLGETIKDALGEHILERVETIRKLSKSSRAGNDANRQELLTTLQNLSNDELLPVARAFSQFLNLANTAEQYHSISPKGEAASNPEVIARTLRKLKNQPELSEDTIKKAVESLSLELVLTAHPTEITRRTLIHKMVEVNACLKQLDNKDIADYEHNQLMRRLRQLIAQSWHTDEIRKLRPSPVDEAKWGFAVVENSLWQGVPNYLRELNEQLEENLGYKLPVEFVPVRFTSWMGGDRDGNPNVTADITRHVLLLSRWKATDLFLKDIQVLVSELSMVEATPELLALVGEEGAAEPYRYLMKNLRSRLMATQAWLEARLKGEELPKPEGLLTQNEELWEPLYACYQSLQACGMGIIANGDLLDTLRRVKCFGVPLVRIDIRQESTRHTEALGELTRYLGIGDYESWSEADKQAFLIRELNSKRPLLPRNWQPSAETREVLDTCQVIAEAPQGSIAAYVISMAKTPSDVLAVHLLLKEAGIGFAMPVAPLFETLDDLNNANDVMTQLLNIDWYRGLIQGKQMVMIGYSDSAKDAGVMAASWAQYQAQDALIKTCEKAGIELTLFHGRGGSIGRGGAPAHAALLSQPPGSLKGGLRVTEQGEMIRFKYGLPEITVSSLSLYTGAILEANLLPPPEPKESWRRIMDELSVISCDVYRGYVRENKDFVPYFRSATPEQELGKLPLGSRPAKRRPTGGVESLRAIPWIFAWTQNRLMLPAWLGAGTALQKVVEDGKQSELEAMCRDWPFFSTRLGMLEMVFAKADLWQAEYYDQRLVDKALWPLGKELRNLQEEDIKVVLAIANDSHLMADLPWIAESIQLRNIYTDPLNVLQAELLHRSRQAEKEGQEPDPRVEQALMVTIAGIAAGMRNTG
On to B2, for which the “fold change of barcode share” value runs as follows: under setting [1], 1.3 ± 0.37; under setting [2], 0.00999 ± 0.0067.

B3: ppc L778D (protein)
chain: MNEQYSALRSNVSMLGKVLGETIKDALGEHILERVETIRKLSKSSRAGNDANRQELLTTLQNLSNDELLPVARAFSQFLNLANTAEQYHSISPKGEAASNPEVIARTLRKLKNQPELSEDTIKKAVESLSLELVLTAHPTEITRRTLIHKMVEVNACLKQLDNKDIADYEHNQLMRRLRQLIAQSWHTDEIRKLRPSPVDEAKWGFAVVENSLWQGVPNYLRELNEQLEENLGYKLPVEFVPVRFTSWMGGDRDGNPNVTADITRHVLLLSRWKATDLFLKDIQVLVSELSMVEATPELLALVGEEGAAEPYRYLMKNLRSRLMATQAWLEARLKGEELPKPEGLLTQNEELWEPLYACYQSLQACGMGIIANGDLLDTLRRVKCFGVPLVRIDIRQESTRHTEALGELTRYLGIGDYESWSEADKQAFLIRELNSKRPLLPRNWQPSAETREVLDTCQVIAEAPQGSIAAYVISMAKTPSDVLAVHLLLKEAGIGFAMPVAPLFETLDDLNNANDVMTQLLNIDWYRGLIQGKQMVMIGYSDSAKDAGVMAASWAQYQAQDALIKTCEKAGIELTLFHGRGGSIGRGGAPAHAALLSQPPGSLKGGLRVTEQGEMIRFKYGLPEITVSSLSLYTGAILEANLLPPPEPKESWRRIMDELSVISCDVYRGYVRENKDFVPYFRSATPEQELGKLPLGSRPAKRRPTGGVESLRAIPWIFAWTQNRLMLPAWLGAGTALQKVVEDGKQSELEAMCRDWPFFSTRLGMLEMVFAKADLWDAEYYDQRLVDKALWPLGKELRNLQEEDIKVVLAIANDSHLMADLPWIAESIQLRNIYTDPLNVLQAELLHRSRQAEKEGQEPDPRVEQALMVTIAGIAAGMRNTG
On to B3, for which the “fold change of barcode share” value came to 1.05 ± 0.024 under setting [1] and 0.0966 ± 0.083 under setting [2].
